Some of the results follow.

The target of this assay is T1, OsWOX13 (Oryza sativa, UniProt Q5QMM3 1-267).
T1 sequence: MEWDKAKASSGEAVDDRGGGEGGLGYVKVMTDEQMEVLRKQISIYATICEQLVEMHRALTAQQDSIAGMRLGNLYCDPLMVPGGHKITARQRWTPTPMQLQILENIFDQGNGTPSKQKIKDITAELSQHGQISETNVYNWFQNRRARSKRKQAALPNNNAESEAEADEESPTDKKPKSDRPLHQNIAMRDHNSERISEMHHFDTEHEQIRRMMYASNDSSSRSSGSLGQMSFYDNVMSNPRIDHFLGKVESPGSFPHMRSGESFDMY
As to the kind of experiment: protein-binding microarray (RPBM); PBS, 2% BSA, 51.3 ng/ul salmon testes DNA, 50 uM zinc acetate, 200 nM TF, 25 C, 1 h; high values mean tight binding. The note with it: protein: recombinant; tags: N-terminal polyhistidine and DsRed monomer fusion (pET32a); label: CyDye5-dUTP incorporated in the synthesized complementary strand; 3' TTTTT single-stranded linker to array surface; dsDNA, one strand shown. Put shortly:
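Ni–NTA purification followed expression in E. coli BL21-CodonPlus of transcription factors fused N-terminally to a polyhistidine tag and DsRed. At 200 nM in PBS with 2% BSA, salmon testes DNA and 50 µM zinc acetate, the protein was incubated for 1 h at 25 °C with a custom Agilent array that had been primer-extended with Cy5-dUTP and blocked with 2% BSA. After washing, the array was read on an Axon 4000B scanner. The binding signal is per-feature fluorescence intensity in arbitrary units.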
“ACTAATGACGGATTAATTAGGCTTAATAAATTCGTCTCGCCGGAGTCACCTAGTGCAG”: the binding signal was 51500 fluorescence intensity (a.u.).

Turning to “CCCTTCAATCAATGCCATGACAGATACCTATGAGTACTATCGGAGTCACCTAGTGCAG”, the binding signal was 33000 fluorescence intensity (a.u.).

On to “AAATTAATTAATACAATATATTCCTGCATGCCCTGTATAACGGAGTCACCTAGTGCAG”, for which the binding signal is 23800 fluorescence intensity (a.u.).

With “GTAATTAATTAGTTAACTCTTCACGAATTAACTTACACAACGGAGTCACCTAGTGCAG”, the binding signal was 40600 fluorescence intensity (a.u.).

In the case of “CACCAATCATAGGCGCGCAGAGGCCACGGGGCCCCAGCCGCGGAGTCACCTAGTGCAG”, the binding signal is 5510 fluorescence intensity (a.u.).

Turning to “CAGTACTGTCATTTCCAAATTGGTGTCTCATTAAACGAAACGGAGTCACCTAGTGCAG”, the binding signal is 3990 fluorescence intensity (a.u.).

Take “CATTAAGCACTGATTAACTGTACACGCTACCTATCTGACACGGAGTCACCTAGTGCAG”: the binding signal was 8770 fluorescence intensity (a.u.).

Regarding “AGTAATGATAATCGATGTCACAGAGTAAATTTGCTGGCTCCGGAGTCACCTAGTGCAG”, the binding signal was 8360 fluorescence intensity (a.u.).

Regarding “TGAAACGGAGGAAGTAACTAATTGGAGATTTAACATCACCCGGAGTCACCTAGTGCAG”, the binding signal was 3910 fluorescence intensity (a.u.).

On to “AGTTGTGGTTAATTACGGGGTAATTTGTACCCGCGTACGTCGGAGTCACCTAGTGCAG”, for which the binding signal is 26400 fluorescence intensity (a.u.).

In the case of “TTATGATTGCCAATCTTATTTCTTGAGTATTTCTGTTCAACGGAGTCACCTAGTGCAG”, the binding signal was 45300 fluorescence intensity (a.u.).

For the sequence “TTGATTAATCACATGTTAATGAATGCAACTAAAAGCCTACCGGAGTCACCTAGTGCAG”, the binding signal is 33000 fluorescence intensity (a.u.).

Take “TTAAATTTTATTATTTAACTGACATGTGGGCTCACATATTCGGAGTCACCTAGTGCAG”: the binding signal is 31100 fluorescence intensity (a.u.).

Turning to “GAAATTGGCAGTTTGTTTGCCTGTGTTGGCACCTACACAACGGAGTCACCTAGTGCAG”, the binding signal is 12500 fluorescence intensity (a.u.).

In the case of “TTGATTTGATTGGGTTGGTTCCAAATTATATTCTGTGATTCGGAGTCACCTAGTGCAG”, the binding signal was 57600 fluorescence intensity (a.u.).

For “GCAGATAAATAGGTGATTTTGGTGAACCAACATTGCATTGCGGAGTCACCTAGTGCAG”, the binding signal is 8560 fluorescence intensity (a.u.).

For “CGTTGACAAGTATAGGGACCTCAGATGAACTTATTCCCCACGGAGTCACCTAGTGCAG”, the binding signal is 5160 fluorescence intensity (a.u.).

For “GTGATCACCCTTTGATTGACCCGCACCCGCATCCCTTTCCCGGAGTCACCTAGTGCAG”, the binding signal was 35500 fluorescence intensity (a.u.).

Consider “TATTATTAATAATTTAAGGGTTAGGTGATCTAATAAGTTACGGAGTCACCTAGTGCAG”, for which the binding signal is 3290 fluorescence intensity (a.u.).

Consider “GTCAAATTGCCATGTCAGCAAAAGCCGCTTCCAAAACCATCGGAGTCACCTAGTGCAG”, for which the binding signal is 6480 fluorescence intensity (a.u.).

For the sequence “GCTGATGACAGGAGTAAGGAGGTGGCACAATCGGGACCAACGGAGTCACCTAGTGCAG”, the binding signal was 6380 fluorescence intensity (a.u.).

As for “TTATAATAATTAAAACTCAATCAATCATACGTTAATACCACGGAGTCACCTAGTGCAG”, the binding signal is 15600 fluorescence intensity (a.u.).

For “CCTGACTGCCTACACATTCTGGGCTGCAAAGAGGGGCCGTCGGAGTCACCTAGTGCAG”, the binding signal is 12400 fluorescence intensity (a.u.).

“TAATAATTTTGTGCGATAAATGAATATAGTTCCAGTAATTCGGAGTCACCTAGTGCAG”: the binding signal was 10800 fluorescence intensity (a.u.).

In the case of “TGTTGGTTAAGTAATTAATTAAGTCTTGGCTATTGGCGATCGGAGTCACCTAGTGCAG”, the binding signal was 13500 fluorescence intensity (a.u.).

As to “TTCTGATTGATGTCAGGAGTGGCGTGCGTACCAGTGCTGTCGGAGTCACCTAGTGCAG”, the binding signal is 58100 fluorescence intensity (a.u.).

On to “GGCCTGATTAGAACAGCACGAGCCATATGGATTTAAGCAGCGGAGTCACCTAGTGCAG”, for which the binding signal is 22000 fluorescence intensity (a.u.).

“ACGCCAAAATTAGAAATTTGAAGAAATTAAAACGATGCGACGGAGTCACCTAGTGCAG”: the binding signal is 7980 fluorescence intensity (a.u.).

In the case of “CAATAAATTTTCTTGAAAGATTGTCACAGCCGCTACACTACGGAGTCACCTAGTGCAG”, the binding signal is 11300 fluorescence intensity (a.u.).

Turning to “TTTTGTTCACTGATTTATGATTTATTTAAGAAGAGAGAGACGGAGTCACCTAGTGCAG”, the binding signal was 19600 fluorescence intensity (a.u.).

For “TGTAAATGATGAAGAGTGCAAGCATCTAATTTTCTCCTCTCGGAGTCACCTAGTGCAG”, the binding signal is 6140 fluorescence intensity (a.u.).

In the case of “CCGTTTGTCCTTAATTGCAATTAACAATGCGGGAGTACAACGGAGTCACCTAGTGCAG”, the binding signal was 39700 fluorescence intensity (a.u.).

Turning to “CAAGATTATTTTAACTCTTTTGAAGGAAAGATAAAAGCTTCGGAGTCACCTAGTGCAG”, the binding signal is 3880 fluorescence intensity (a.u.).

As to “CCGTGACAGAACAACACACGACGGCAGCCAGAGCCAGCCGCGGAGTCACCTAGTGCAG”, the binding signal was 9100 fluorescence intensity (a.u.).

Take “ATACAAATCTCCGTCCATTAATGAAGAGAAGTCAAGTTGACGGAGTCACCTAGTGCAG”: the binding signal is 8390 fluorescence intensity (a.u.).

As for “CGGCGAATGTCAATCATGTCGCATGCCTTCCTTTCTCTTCCGGAGTCACCTAGTGCAG”, the binding signal was 19300 fluorescence intensity (a.u.).

In the case of “GGTTTGAATTTTAATATAATTTCTACAAAGAATTTAACCGCGGAGTCACCTAGTGCAG”, the binding signal was 5070 fluorescence intensity (a.u.).

Turning to “TAAATTTATAGTCAATTGTAGCATGAGCTCTAATAAACTGCGGAGTCACCTAGTGCAG”, the binding signal is 4880 fluorescence intensity (a.u.).

Take “TAGGATTGCCAGGTCCTAATTGGCTGATTCTGCCACTAACCGGAGTCACCTAGTGCAG”: the binding signal was 8240 fluorescence intensity (a.u.).

For the sequence “AAATAATCTGTGTTTAATTTTCTTATATGTTTTCCCAGCACGGAGTCACCTAGTGCAG”, the binding signal is 8510 fluorescence intensity (a.u.).

As for “TTTGTCTTACAAATTTAAATTTCGAGTTGAAAATTTTCAGCGGAGTCACCTAGTGCAG”, the binding signal was 3760 fluorescence intensity (a.u.).

For “AACAAGCCATTTAATTAATTTGGATGGTAGATCTGGAAGGCGGAGTCACCTAGTGCAG”, the binding signal is 8810 fluorescence intensity (a.u.).

The values are drawn from publication PMC7819943, “Rice protein-binding microarrays: a tool to detect cis-acting elements near promoter regions in rice”.
